# Data taken from PubChem BioAssay AID2546 (National Center for Advancing Translational Sciences (NCATS), 2010).
# The campaign covered roughly 310,000 compounds. About 11,000 (3.5%) were called active. Inconclusive results, whose numbers are uncertain, are shown with a selection of clear calls. The call rests on the fitted dose curve; in most records, active means well fitted inhibition curve with a large enough effect; inconclusive means small, poorly fitted or top-dose-only effect, or effect the other way; inactive means flat fitted curve, though single readings scatter. No potency is given beside an inconclusive call; the fits are too rough.
# Assay: VP16 counterscreen qHTS for inhibitors of ROR gamma transcriptional activity;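 further: Gal4-VP16 expression switched on by copper sulfate through the metallothionein promoter; nearly all actives have a fitted effect of over 50% in size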
# Conditions: Drosophila S2 Gal4-VP16 UAS-luciferase, luminescence, 20 h; activity, negative = inhibition: at 53.6 µM (top of the series)
# On the % scale 0 is the no-effect control and ±100 the full control effect; potency means the concentration at half of the fitted maximal effect; tags describe the fitted curve by direction and shape.
SMILES,"activity, negative = inhibition",Potency
CCC(CC)NC(=O)CON=C1c2ccccc2-c2ccccc21,inactive: -20.5%,–
C=CCC(=O)N1CCCC(CO)(Cc2ccc(F)cc2F)C1 (stereo unspecified),inactive: -1.75%,–
COc1cccc(/C=C/C(=O)Nc2ccc3c(c2)OCCO3)c1OC,–,"inconclusive [inhibitor, partial curve]"
CC1(C(=O)N(CC(=O)NC2CCCC2)Cc2ccco2)CC(=O)N=C2C=CC=CN21 (stereo unspecified),inactive: -9.31%,–
O=C(CCCc1ccccc1)NC1CCSC1=O (stereo unspecified),–,"inconclusive [inhibitor, single point]"
CC(C)(C)OC(=O)CNC(=O)c1nc[nH]c1C(=O)NCc1ccccc1,–,"inconclusive [inhibitor, single point]"
CCc1[nH]c(=O)[nH]c1C(C)S(=O)(=O)c1ccc(C)cc1 (stereo unspecified),–,"inconclusive [inhibitor, single point]"
Cc1oc(-c2cccc3ccccc23)nc1CN1CCN(c2ncnc3ccccc23)CC1,–,"inconclusive [inhibitor, single point]"
COC(=O)c1ccc(NC(=O)CSc2ccccn2)cc1,–,"inconclusive [inhibitor, single point]"
COc1cc(OC)cc(C(=O)NCC2CCCN(C(=O)c3csc(C(C)C)n3)C2)c1 (stereo unspecified),inactive: 7.84%,–
O=C(CNS(=O)(=O)/C=C/c1ccccc1)OC1CCOC1=O (stereo unspecified),inactive: 3.22%,–
Cn1nc([N+](=O)[O-])nc1Sc1nnc(-c2ccccc2)o1,–,"inconclusive [inhibitor, single point]"
Cc1ccc(C)c(NC(=S)NNC(=S)Nc2ccc(C(C)C)cc2)c1,–,"inconclusive [inhibitor, single point]"
Cc1ccc(C(=O)Nc2ccc(NC(=O)c3cccs3)cc2)c(C)c1,–,"inconclusive [inhibitor, single point]"
Cc1cc(NC(=O)c2c(F)cccc2Cl)n(-c2nc3ccccc3[nH]2)n1,–,active: 7.08 µM
Cc1ccccc1-n1c(=S)[nH]c2nc3c(cc2c1=O)CCCC3,–,active: 4.47 µM
CN(CC(=O)Nc1ccc(Cl)c(C(F)(F)F)c1)C(=O)Cc1cccs1,–,"inconclusive [inhibitor, single point]"
COc1ccc(OC)c2sc(N(CCN(C)C)C(=O)/C=C/c3cccs3)nc12,–,active: 10 µM
CC(C)C[C@H](NC(=O)c1nc[nH]c1C(=O)N1CCC(C)CC1)C(=O)OC(C)(C)C,–,"inconclusive [inhibitor, single point]"
O=C(Nc1nc(SCc2ccc(F)cc2)ns1)c1ccco1,–,"inconclusive [activator, single point]"
CC(C)(C)c1ccc(/C=N/NC(=S)NCc2ccccc2)cc1,–,active: 1.12 µM
Cc1[nH]c2ccccc2c1/C=N\NC(=O)CNc1ccc2c(c1)OCO2,–,"inconclusive [activator, single point]"
Cc1c(N=Nc2c(-c3ccc([N+](=O)[O-])cc3)[nH]n(C(N)=S)c2=O)cccc1[N+](=O)[O-],–,"inconclusive [inhibitor, partial curve]"
Cc1sc2cc3c(c(C(=O)c4ccccc4)[n+]2c1C)-c1cccc2cccc-3c12,–,active: 11.2 µM
NC1=NC(=O)/C(=C/c2cccs2)S1,–,"inconclusive [inhibitor, partial curve, poor fit]"
Cn1ccnc1SCC(=O)Nc1sccc1C#N,inactive: 6.35%,–

SMILES,"activity, negative = inhibition",Potency
CNS(=O)(=O)c1cccc(C(=O)OCC(=O)Nc2ccc(-c3nc4ccc(C)cc4s3)cc2)c1,–,"inconclusive [inhibitor, full curve, poor fit]"
O=C(COc1ccccc1)NCC1(N2CCCCC2)CCCCC1,inactive: -5.44%,–
Cc1cc(C)nc(Nc2n[nH]c(COc3ccc4ccccc4c3)n2)n1,inactive: -9.35%,–
CC(=O)N/N=C/c1c(C)[nH]n(-c2ccccc2)c1=O,–,active: 11.2 µM
O=C(Nc1nnc(-c2ccccc2)s1)c1cccc(S(=O)(=O)N2CCOCC2)c1,inactive: -20.3%,–
CCC(C)/C(C)=N/NC(=O)c1ccc(CSc2nc3ccccc3s2)cc1 (stereo unspecified),–,"inconclusive [inhibitor, single point]"
CC(C)C(NC(=O)c1ccccc1F)C(=O)NCc1ccc(F)cc1 (stereo unspecified),inactive: 3.95%,–
COc1ccc(C(=O)CCC(C)(C)[N+](=O)[O-])cc1,–,"inconclusive [activator, full curve, poor fit]"
COc1ccc(-c2n[nH]c3c2CN(C(=O)c2ccccc2)CC3)cc1,–,"inconclusive [inhibitor, full curve, poor fit]"
CC1CCC(C(=O)O)NC1c1ccc(-c2ccco2)cc1 (stereo unspecified),inactive: 0.412% [at 10 µM],–
CN1CCc2ccccc2C1Cc1ccccc1NC(=O)c1sc2ccccc2c1Cl (stereo unspecified),–,"inconclusive [inhibitor, single point]"
COc1cc2ncnc(NCc3ccc(C)cc3)c2cc1OC,–,"inconclusive [inhibitor, single point]"
COc1ccccc1CN1CC(C(=O)N2CCOCC2)CCC1=O (stereo unspecified),–,"inconclusive [activator, single point]"
Cc1cc(N2CCOCC2)nc2ccccc12,inactive: -2.82%,–
Cc1cccn2c(=O)c(C=O)c(Cl)nc12,–,"inconclusive [inhibitor, single point]"
Cc1ccccc1-c1nc(NCc2cccnc2)c2ccccc2n1,–,"inconclusive [inhibitor, single point]"
O=C(CSc1ccccc1)N/N=C/c1ccccc1O,–,active: 1.58 µM
CS(=O)(=O)N(CCc1ccccc1)CC(=O)NCc1ccccc1Cl,–,"inconclusive [inhibitor, single point]"
COc1ccc(NC(=O)/C(C#N)=C\C=C\c2ccco2)cc1,–,"inconclusive [inhibitor, single point]"
O=c1cc(N2CCNCC2)oc2c(-c3ccccc3)cccc12,inactive: -13.9%,–
CNC(=O)CN(c1ccc(Oc2ccccc2)cc1)S(=O)(=O)c1ccc(C)cc1,–,"inconclusive [inhibitor, single point]"
Cc1ccc(/C=N/NC(=O)CSc2nc3ccccc3n2Cc2ccccc2)o1,–,"inconclusive [inhibitor, single point]"
CCCCCCCCCCCCCC/C(C(=O)O)=C(\C)C(=O)O,inactive: -10.4%,–
COC(=O)c1sccc1NC(=O)Nc1ccccc1OC,–,"inconclusive [activator, single point]"
Cc1c(/C(Cc2ccccc2)=N/O)c2ccccc2n1C,inactive: -9.61%,–
CCOc1cc(N2CCOCC2)c(OCC)cc1NC(=O)c1cc(-c2ccco2)nc2ccccc12,–,"inconclusive [inhibitor, single point]"

SMILES,"activity, negative = inhibition",Potency
CC(C)OCC(O)CN1CCN(CCN2C(=O)c3cccc4cccc(c34)C2=O)CC1 (stereo unspecified),inactive: -4.89%,–
Cc1cccc(NNC(N)=S)c1C,–,"inconclusive [inhibitor, single point]"
Cc1cc(C)c(C#N)c(Cl)n1,inactive: 1.05%,–
O=C1c2ccccc2S(=O)(=O)N1Cc1nnc(-c2ccccc2Br)o1,inactive: 13.7%,–
COc1ccc(-c2cc(-c3ccc(OC)cc3)nc(-c3ccc4c(c3)NC(=O)CO4)c2)cc1,inactive: 2.74%,–
Cc1ccc(N2CC(C(=O)N/N=C/c3sccc3C)CC2=O)cc1 (stereo unspecified),–,"inconclusive [inhibitor, single point]"
COc1ccc(/C=C/C(=O)c2ccc(C)c([N+](=O)[O-])c2)cc1O,–,active: 15.8 µM
CCOc1ccc(Nc2nc(NCC3CCCO3)c3ccccc3n2)cc1 (stereo unspecified),–,"inconclusive [inhibitor, single point]"
O=C(Nc1nccs1)C12CC3CC(C1)CC(C(=O)Nc1nccs1)(C3)C2,–,"inconclusive [inhibitor, partial curve]"
O=C(C1CCN(c2nnc(-n3cccc3)s2)CC1)N1CCc2ccccc2C1,–,"inconclusive [inhibitor, single point]"
Cc1ccc(C(=O)O)cc1-c1ccc(C=C2C(=O)c3ccccc3C2=O)o1,inactive: -8.81%,–
CCN(C(=S)Nc1ccc(Oc2ccccc2)cc1)c1ccccc1,–,active: 17.8 µM
COc1ccc(/C=C\C(=O)Oc2cccc(/C=N/NC(=O)Cc3ccc(OC)c(OC)c3)c2)cc1,–,active: 12.6 µM
COc1cc(CCC(=O)OCC(=O)Nc2ccccc2C(C)C)cc(OC)c1OC,inactive: -6.02%,–
Cc1ccc(NS(=O)(=O)c2cc(N)ccc2Cl)c(C)c1,–,"inconclusive [inhibitor, single point]"
Nc1cccc(-c2cnc3ccccc3n2)c1,–,"inconclusive [inhibitor, single point]"
CC(C)=C1C(=O)NN(c2ccc(C)c(Cl)c2)C1=O,–,"inconclusive [activator, single point]"
COc1cc(/C=N/O)cc(Br)c1OS(=O)(=O)c1ccc(C)cc1,–,active: 11.2 µM
COc1ccc2nc(-c3ccc(N)cc3)[nH]c2c1,–,active: 10 µM
O=C(NCc1ccccc1Cl)c1ccc2c(=O)n(CC3CCCO3)c(=S)[nH]c2c1 (stereo unspecified),–,"inconclusive [inhibitor, single point]"
CN(C)S(=O)(=O)c1cccc(-c2nnc(SCc3cc(Cl)cc4c3OCOC4)n2N)c1,inactive: 6.11%,–
CCc1ccc(NC(=S)N2CCN(c3cccc(OC)c3)CC2)cc1,–,"inconclusive [inhibitor, single point]"
CC(=O)Oc1c(-c2ccc(Br)o2)oc2ccccc2c1=O,–,active: 7.08 µM
C/C(CC(=O)Nc1ccc(N(C)C)cc1)=N\NC(=O)c1ccc([N+](=O)[O-])cc1Cl,–,"inconclusive [inhibitor, single point]"
